Experimental data taken from the supplement of paper PMC4604168 (melanoma cell lines).
The list shows a part of the results. Many values rest on one well or one pass, so single values are uncertain.

Experiments:
Experiment in all cases: cell count relative to DMSO control; melanoma cells; higher = more viable cells
Conditions in all cases: library dose: standard library concentration; 72 h
G361 = tested on: G361
IPC-298 = tested on: IPC-298
IST-MEL1 = tested on: IST-MEL1
LB2518-MEL = tested on: LB2518-MEL
LOXIMVI = tested on: LOXIMVI
MEL-HO = tested on: MEL-HO
MZ2-MEL = tested on: MZ2-MEL
MeWo = tested on: MeWo
RPMI7951 = tested on: RPMI7951
RVH-421 = tested on: RVH-421
SkMel28 = tested on: SkMel28
SkMel2 = tested on: SkMel2
SkMel30 = tested on: SkMel30
SkMel5 = tested on: SkMel5
UACC257 = tested on: UACC257
UACC62 = tested on: UACC62
WM115 = tested on: WM115
WM1716 = tested on: WM1716
WM1745 = tested on: WM1745
WM3526 = tested on: WM3526
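Also: cells treated in 1,536-well plates, then fixed and DAPI-stained, with nuclei counted from automated high-throughput microscope images.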

| Compound | cell count (G361) [%] | cell count (IPC-298) [%] | cell count (IST-MEL1) [%] | cell count (LB2518-MEL) [%] | cell count (LOXIMVI) [%] | cell count (MEL-HO) [%] | cell count (MZ2-MEL) [%] | cell count (MeWo) [%] | cell count (RPMI7951) [%] | cell count (RVH-421) [%] | cell count (SkMel28) [%] | cell count (SkMel2) [%] | cell count (SkMel30) [%] | cell count (SkMel5) [%] | cell count (UACC257) [%] | cell count (UACC62) [%] | cell count (WM115) [%] | cell count (WM1716) [%] | cell count (WM1745) [%] | cell count (WM3526) [%] |
| --- | --- | --- | --- | --- | --- | --- | --- | --- | --- | --- | --- | --- | --- | --- | --- | --- | --- | --- | --- | --- |
| CC[C@]1(O)C[C@H]2CN(CCc3c([nH]c4ccccc34)[C@@](C(=O)OC)(c3cc4c(cc3OC)N(C=O)[C@H]3[C@@](O)(C(=O)OC)[C@H](OC(C)=O)[C@]5(CC)C=CCN6CC[C@]43[C@@H]65)C2)C1 [vincristine] + COc1cc([C@@H]2c3cc4c(cc3[C@@H](O[C@@H]3O[C@@H]5CO[C@@H](C)O[C@H]5[C@H](O)[C@H]3O)[C@H]3COC(=O)[C@H]23)OCO4)cc(OC)c1O [etoposide] (first compound 0.0005 µM, partner dose 0.1 µM) | 90.9 | 74.7 | 91.6 | 104 | 63.5 | 99 | 80.5 | 76.9 | 46.1 | 84.2 | 60.7 | 76.2 | 65.9 | 54.5 | 94.3 | 62.4 | 57.3 | 44.6 | 86.5 | 64.3 |
| N#CC[C@H](C1CCCC1)n1cc(-c2ncnc3[nH]ccc23)cn1 [ruxolitinib] + Nc1nc(F)nc2c1ncn2[C@@H]1O[C@H](CO)[C@@H](O)[C@@H]1O [fludarabine] (first compound 5 µM, partner dose 1 µM) | 61.7 | 62.7 | 78.1 | 88.6 | 64.7 | 56.5 | 82.7 | 67.4 | 56.1 | 78.3 | 1.72 | 2.07 | 20.5 | 23.8 | 36.9 | 103 | 91.3 | 48.7 | 62.3 | 23.6 |
| N#CC[C@H](C1CCCC1)n1cc(-c2ncnc3[nH]ccc23)cn1 [ruxolitinib] + CO[C@@H]1[C@H](N(C)C(=O)c2ccccc2)C[C@H]2O[C@]1(C)n1c3ccccc3c3c4c(c5c6ccccc6n2c5c31)C(=O)NC4 [Midostaurin] (first compound 5 µM, partner dose 0.4 µM) | 52.8 | 66.8 | 71.1 | 53 | 59.7 | 73.5 | 63.5 | 56.4 | 27.9 | 64 | 44.2 | 45.3 | 67.1 | 43.2 | 50.5 | 67.2 | 43.4 | 38.8 | 32.4 | 67.7 |
| N#CC[C@H](C1CCCC1)n1cc(-c2ncnc3[nH]ccc23)cn1 [ruxolitinib] + CC1(C)CCC(c2ccc(Cl)cc2)=C(CN2CCN(c3ccc(C(=O)NS(=O)(=O)c4ccc(N[C@H](CCN5CCOCC5)CSc5ccccc5)c(S(=O)(=O)C(F)(F)F)c4)cc3)CC2)C1 [ABT263] (first compound 5 µM, partner dose 2 µM) | 54.5 | 104 | 84.1 | 108 | 98.2 | 52.1 | 92.7 | 75.2 | 51.2 | 55.1 | 105 | 96.8 | 73.7 | 74.1 | 35.6 | 62.3 | 79 | 51.3 | 2.01 | 111 |
| N#CC[C@H](C1CCCC1)n1cc(-c2ncnc3[nH]ccc23)cn1 [ruxolitinib] + Cc1ccc(Nc2nccc(N(C)c3ccc4c(C)n(C)nc4c3)n2)cc1S(N)(=O)=O [Pazopanib] (first compound 5 µM, partner dose 2 µM) | 64.1 | 60.1 | 87.2 | 85.7 | 94.2 | 78.2 | 53.8 | 77.4 | 52 | 68.7 | 103 | 73.9 | 70.8 | 76.3 | 72.2 | 76.7 | 103 | 76.8 | 62 | 68.4 |
| CC[C@]1(O)C[C@H]2CN(CCc3c([nH]c4ccccc34)[C@@](C(=O)OC)(c3cc4c(cc3OC)N(C=O)[C@H]3[C@@](O)(C(=O)OC)[C@H](OC(C)=O)[C@]5(CC)C=CCN6CC[C@]43[C@@H]65)C2)C1 [vincristine] + O=C(Nc1cc(C(F)(F)F)cc(C(F)(F)F)c1)c1cc(Cl)ccc1O [IMD0354] (first compound 0.0005 µM, partner dose 0.08 µM) | 118 | 108 | 81 | 76.9 | 69.7 | 86.5 | 83.1 | 98.1 | 58 | 83.7 | 73.1 | 81.5 | 66.3 | 67.8 | 86.6 | 62 | 67.1 | 54.2 | 65.6 | 55 |
| N#CC[C@H](C1CCCC1)n1cc(-c2ncnc3[nH]ccc23)cn1 [ruxolitinib] + CCc1ccc(CCOc2ccc(CC3SC(=O)NC3=O)cc2)nc1 [pioglitazone] (first compound 5 µM, partner dose 10 µM) | 77.4 | 91.7 | 98.4 | 116 | 190 | 72.3 | 78.4 | 77.6 | 91 | 72.4 | 73.6 | 90.3 | 108 | 81 | 91 | 83.1 | 100 | 64.5 |  | 108 |
| CC[C@]1(O)C[C@H]2CN(CCc3c([nH]c4ccccc34)[C@@](C(=O)OC)(c3cc4c(cc3OC)N(C=O)[C@H]3[C@@](O)(C(=O)OC)[C@H](OC(C)=O)[C@]5(CC)C=CCN6CC[C@]43[C@@H]65)C2)C1 [vincristine] + CCCCCCCCCCCC1=C(O)C(=O)C=C(O)C1=O [Embelin] (first compound 0.0005 µM, partner dose 6 µM) | 36.5 | 49.9 | 51.8 | 53.3 | 78.9 | 57.2 | 35.4 | 23.2 | 29.2 | 36.7 | 19.5 | 8.84 | 49.7 | 39.8 | 61.7 | 70.3 | 36.9 | 30.9 |  | 46.1 |
| Cc1cc(Nc2cc(N3CCN(C)CC3)nc(Sc3ccc(NC(=O)C4CC4)cc3)n2)n[nH]1 [Tozasertib] + Cn1cc(/C=C2\C(=O)Nc3cccnc32)c2ccccc21 [GW441756] (first compound 0.03 µM, partner dose 2 µM) | 77.6 | 72.1 | 85.1 | 67.9 | 93.1 | 81.9 | 62.9 | 66.6 | 71.5 | 72 | 55.6 | 99.5 | 91.5 | 64 | 96.6 | 77 | 61.9 | 73.5 |  | 85.8 |
| CC[C@]1(O)C[C@H]2CN(CCc3c([nH]c4ccccc34)[C@@](C(=O)OC)(c3cc4c(cc3OC)N(C=O)[C@H]3[C@@](O)(C(=O)OC)[C@H](OC(C)=O)[C@]5(CC)C=CCN6CC[C@]43[C@@H]65)C2)C1 [vincristine] + COc1cc(N2CCC(N3CCN(C)CC3)CC2)ccc1Nc1ncc(Cl)c(Nc2ccccc2S(=O)(=O)C(C)C)n1 [NVP-TAE684] (first compound 0.0005 µM, partner dose 0.4 µM) | 81.7 | 107 | 105 | 104 | 100 | 97.3 | 113 | 62.9 | 63.2 | 92.7 | 74.5 | 76 | 62.7 | 61 | 104 | 63.1 | 62.9 | 56.9 |  | 40.3 |
| N#CC[C@H](C1CCCC1)n1cc(-c2ncnc3[nH]ccc23)cn1 [ruxolitinib] + COc1ccc(COc2ccc(Cc3cnc(N)nc3N)cc2OC)cc1 [GW2580] (first compound 5 µM, partner dose 5 µM) | 81.1 | 94.2 | 90.5 | 150 | 109 | 84.7 | 81.9 | 76.4 | 109 | 104 | 109 | 117 | 100 | 86.4 | 77.2 | 147 | 114 | 92.9 |  | 117 |
| Cc1cc(Nc2cc(N3CCN(C)CC3)nc(Sc3ccc(NC(=O)C4CC4)cc3)n2)n[nH]1 [Tozasertib] + O=S(=O)(c1ccccc1)N(CC(F)(F)F)c1ccc(C(O)(C(F)(F)F)C(F)(F)F)cc1 [T0901317] (first compound 0.03 µM, partner dose 7 µM) | 55.2 | 73.6 | 87.7 | 66.2 | 93.4 | 76.9 | 54.7 | 67.6 | 55.5 | 84.3 | 50 | 75.9 | 83.3 | 56.3 | 69.2 | 54.5 | 59.7 | 66.1 |  | 70.8 |
| CC[C@]1(O)C[C@H]2CN(CCc3c([nH]c4ccccc34)[C@@](C(=O)OC)(c3cc4c(cc3OC)N(C=O)[C@H]3[C@@](O)(C(=O)OC)[C@H](OC(C)=O)[C@]5(CC)C=CCN6CC[C@]43[C@@H]65)C2)C1 [vincristine] + Oc1nc(-c2ccc(C(F)(F)F)cc2)nc2c1CSCC2 [XAV939] (first compound 0.0005 µM, partner dose 10 µM) | 80.6 | 94.9 | 89.2 | 77.6 | 88.1 | 83.9 | 84.2 | 58.8 | 55.8 | 82.2 | 69.8 | 83.1 | 68 | 49.4 | 78.5 | 67.2 | 42.9 | 31 |  | 59.4 |
| N#CC[C@H](C1CCCC1)n1cc(-c2ncnc3[nH]ccc23)cn1 [ruxolitinib] + CC(C)CCN1c2nc(Nc3cc(F)c(O)c(F)c3)ncc2N(C)C(=O)C1C [BID1870] (first compound 5 µM, partner dose 1 µM) | 65.8 | 63.7 | 83.5 | 123 | 81.3 | 69.8 | 103 | 49.1 | 61.2 | 64.4 | 89.7 | 95.5 | 69.5 | 61.1 | 80.5 | 82.6 | 85.1 | 63.8 |  | 81 |
| Cc1cc(Nc2cc(N3CCN(C)CC3)nc(Sc3ccc(NC(=O)C4CC4)cc3)n2)n[nH]1 [Tozasertib] + O=C(O)C(=O)Nc1sc2c(c1C(=O)O)CCNC2 [TCS401] (first compound 0.03 µM, partner dose 8.33333 µM) | 94.5 | 102 | 110 | 87.7 | 115 | 85.5 | 79.1 | 80.9 | 121 | 91.2 | 70.8 | 87.7 | 134 | 70 | 88.5 | 106 | 53.3 | 69 |  | 93.4 |
